# Reference: article PMC6664820, “Novel natural and synthetic inhibitors of solute carriers SGLT1 and SGLT2” (Pharmacology Research & Perspectives, 2019)
# Screen size: about 1,900 compounds; about 40 (2%) showed an effect of 50% or more. This is one part of the list. Residues, ends and D or L forms follow the SMILES beside them. *: point of attachment. For = O=C*
# Molecular target: human SGLT1 (hSGLT1) (human, UniProt P13866)
# Test: primary screen, percent of control activity; higher = less effect of the substance
# Parameters: single well
# Details: 50 µM
# How it was run: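 Single-point screen at 50 µmol/L in CHO-hSGLT1 cells, with 160 µmol/L 1-NBD-glucose in glucose-free DMEM for 90 min at 37°C. Fluorescence from isopropanol extracts was calibrated, and CHO wild-type uptake was subtracted. Data are percent of uptake without compound.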
# Sequence of human SGLT1 (hSGLT1) (P13866 whole entry, looked up): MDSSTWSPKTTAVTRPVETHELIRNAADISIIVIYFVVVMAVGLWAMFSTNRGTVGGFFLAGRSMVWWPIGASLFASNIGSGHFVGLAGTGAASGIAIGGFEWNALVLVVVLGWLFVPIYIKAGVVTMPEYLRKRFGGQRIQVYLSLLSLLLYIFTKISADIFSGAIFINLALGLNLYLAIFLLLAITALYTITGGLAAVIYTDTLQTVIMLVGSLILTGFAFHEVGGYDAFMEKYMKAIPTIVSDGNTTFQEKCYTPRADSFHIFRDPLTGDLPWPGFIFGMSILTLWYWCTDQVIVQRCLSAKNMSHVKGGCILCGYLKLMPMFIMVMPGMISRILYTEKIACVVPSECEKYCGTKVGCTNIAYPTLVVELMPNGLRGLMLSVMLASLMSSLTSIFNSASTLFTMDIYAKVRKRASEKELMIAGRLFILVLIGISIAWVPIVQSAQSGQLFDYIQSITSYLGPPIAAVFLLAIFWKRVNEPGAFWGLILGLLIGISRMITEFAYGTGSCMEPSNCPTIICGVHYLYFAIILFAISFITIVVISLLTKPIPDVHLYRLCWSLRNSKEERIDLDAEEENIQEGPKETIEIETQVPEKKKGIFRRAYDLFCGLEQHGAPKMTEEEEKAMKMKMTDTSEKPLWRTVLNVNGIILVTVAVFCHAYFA
row,SMILES,NORMALIZED SGLT1 ACTIVITY (%)
1,COc1c(O)cc2oc3cc(O)c(CC=C(C)C)c(O)c3c(=O)c2c1CC=C(C)C,131%
2,COC[C@]12CN(C=O)C3[C@@H]4[C@H](OC)C1[C@]3(C1CC3(O)C(OC)C(O)C4(OC(C)=O)C1C3OC(=O)c1ccccc1)[C@@H](OC)C[C@H]2O (stereo partly drawn),91%
3,Nc1nc(=O)c2nc(CNc3ccc(C(=O)N[C@@H](CCC(=O)O)C(=O)O)cc3)cnc2[nH]1,114%
4,CC(C)=CCC/C(C)=C\CO,133%
5,CCN1CCN(C(=O)NC(C(=O)N[C@@H]2C(=O)N3[C@@H]2SC(C)(C)[C@@H]3C(=O)[O-])c2ccccc2)C(=O)C1=O.[Na+] (stereo partly drawn),77%
6,O=c1c(O)c(-c2ccccc2)oc2cc(O)ccc12,224%
7,ClC1=C(Cl)C2(Cl)C3C4CC(C5OC45)C3C1(Cl)C2(Cl)Cl (stereo not drawn),136%
8,N=C(N)NS(=O)(=O)c1ccc(N)cc1,92%
9,CCCCC[C@@H](O)[C@H]1C(=O)O[C@H](C)[C@@H](O)/C=C/C=C/C=C/C=C/C=C(\C)[C@@H](O)C[C@H](O)C[C@H](O)C[C@H](O)C[C@H](O)C[C@H](O)C[C@@H]1O,95%
10,O=C1c2ccccc2-c2cccc3cccc1c23,143%
11,CC(C)=CCc1c2c(c(O)c3c(=O)c(O)c(-c4ccccc4)oc13)C=CC(C)(C)O2,105%
12,C#C[C@]1(OC(C)=O)CC[C@H]2[C@@H]3CCC4=CC(=O)CC[C@@H]4[C@H]3CC[C@@]21C,89%
13,CC1=CC(=O)c2ccccc2C1=O,164%
14,COC(=O)[C@@H]1C(O)CC[C@H]2CN3CCc4c([nH]c5ccccc45)[C@@H]3C[C@@H]21 (stereo partly drawn),137%
15,CCN1CCCC(OC(=O)C(c2ccccc2)c2ccccc2)C1.Cl (stereo not drawn),90%
16,COc1cccc(C=O)c1OC,165%
17,Cc1scc2c1N(C(=O)CN1CCN(C)CC1)c1ccccc1NC2=O.Cl,123%
18,Cc1nc2sccn2c(=O)c1CCN1CCC(=C(c2ccc(F)cc2)c2ccc(F)cc2)CC1,56%
19,Cn1c(=O)[nH]c2nc[nH]c2c1=O,95%
20,COc1ccc(C2C(=O)c3ccccc3C2=O)cc1,124%
21,Cc1cc(O)cc(O)c1C(=O)O,91%

row,SMILES,NORMALIZED SGLT1 ACTIVITY (%)
1,Nc1ccn(C2O[C@H](CO)[C@@H](O)[C@@H]2O)c(=O)n1 (stereo partly drawn),143%
2,CC[C@H](C)C(=O)O[C@H]1C[C@H](O)C=C2C=C[C@H](C)[C@H](CC[C@@H](O)C[C@@H](O)CC(=O)O)[C@H]21,136%
3,Cc1cnc(NC(=O)C2=C([O-])c3ccccc3S(=O)(=O)N2C)s1.[Na+],133%
4,COc1cc([C@@H]2c3cc4c(cc3[C@@H](O)C3COC(=O)C32)OCO4)cc(OC)c1O (stereo partly drawn),123%
5,Cl.c1ccc(C2CN3CCSC3=N2)cc1 (stereo not drawn),101%
6,O=C/C=C/c1ccc(O)cc1,172%
7,O=C(O)c1cc(O)c2c(c1)C(=O)c1cc(O)cc(O)c1C2=O,132%
8,CC1=CC2C(C(C)C)CCC(C)(O)C2CC1 (stereo not drawn),172%
9,OCC(O)C(O)C(O)CO (stereo not drawn),85%
10,CCCCCCCCCCCCCCCCCC(=O)O.CC[C@H]1OC(=O)[C@H](C)[C@@H](O[C@H]2C[C@@](C)(OC)[C@@H](O)[C@H](C)O2)[C@H](C)[C@@H](O[C@@H]2O[C@H](C)C[C@H](N(C)C)[C@H]2O)[C@](C)(O)C[C@@H](C)C(=O)[C@H](C)[C@@H](O)[C@]1(C)O,106%
11,Nc1c2c(nc3ccccc13)CCCC2O.O=C(O)/C=C\C(=O)O (stereo not drawn),183%
12,CCC(=O)Nc1ccc(Cl)c(Cl)c1,280%
13,CNC[C@H](O)c1cccc(O)c1.Cl,113%
14,C[C@]12CCC3C(CC[C@H]4C[C@H](OS(=O)(=O)[O-])CC[C@]34C)C1CCC2=O.[Na+] (stereo partly drawn),124%
15,CN(C)CCC(c1ccc(Cl)cc1)c1ccccn1.O=C(O)/C=C\C(=O)O (stereo in doubt),85%
16,Cl.OC(c1cc(C(F)(F)F)nc2c(C(F)(F)F)cccc12)C1CCCCN1 (stereo not drawn),91%
17,NC(=O)CC[C@H](N)C(=O)O,89%
18,CSCCC(NC=O)C(=O)NC(Cc1ccccc1)C(=O)O (stereo not drawn) (For-Met-Phe-OH; configuration not given here),172%
19,CC12CCCC(O)(C1)C1CC(C)(C)C1CC2 (stereo not drawn),135%
20,CCOC(=O)C(=O)C1(C(=O)OCC)Oc2cc(OC)cc(OC)c2C(=O)C1c1ccccc1 (stereo not drawn),123%
21,Nc1ncnc2[nH]cnc12,116%
